T1: human NPRA (hNPRA) (Homo sapiens, UniProt P16066)
T1 construct: expressed in transfected cells
T1 sequence (P16066 33-1061): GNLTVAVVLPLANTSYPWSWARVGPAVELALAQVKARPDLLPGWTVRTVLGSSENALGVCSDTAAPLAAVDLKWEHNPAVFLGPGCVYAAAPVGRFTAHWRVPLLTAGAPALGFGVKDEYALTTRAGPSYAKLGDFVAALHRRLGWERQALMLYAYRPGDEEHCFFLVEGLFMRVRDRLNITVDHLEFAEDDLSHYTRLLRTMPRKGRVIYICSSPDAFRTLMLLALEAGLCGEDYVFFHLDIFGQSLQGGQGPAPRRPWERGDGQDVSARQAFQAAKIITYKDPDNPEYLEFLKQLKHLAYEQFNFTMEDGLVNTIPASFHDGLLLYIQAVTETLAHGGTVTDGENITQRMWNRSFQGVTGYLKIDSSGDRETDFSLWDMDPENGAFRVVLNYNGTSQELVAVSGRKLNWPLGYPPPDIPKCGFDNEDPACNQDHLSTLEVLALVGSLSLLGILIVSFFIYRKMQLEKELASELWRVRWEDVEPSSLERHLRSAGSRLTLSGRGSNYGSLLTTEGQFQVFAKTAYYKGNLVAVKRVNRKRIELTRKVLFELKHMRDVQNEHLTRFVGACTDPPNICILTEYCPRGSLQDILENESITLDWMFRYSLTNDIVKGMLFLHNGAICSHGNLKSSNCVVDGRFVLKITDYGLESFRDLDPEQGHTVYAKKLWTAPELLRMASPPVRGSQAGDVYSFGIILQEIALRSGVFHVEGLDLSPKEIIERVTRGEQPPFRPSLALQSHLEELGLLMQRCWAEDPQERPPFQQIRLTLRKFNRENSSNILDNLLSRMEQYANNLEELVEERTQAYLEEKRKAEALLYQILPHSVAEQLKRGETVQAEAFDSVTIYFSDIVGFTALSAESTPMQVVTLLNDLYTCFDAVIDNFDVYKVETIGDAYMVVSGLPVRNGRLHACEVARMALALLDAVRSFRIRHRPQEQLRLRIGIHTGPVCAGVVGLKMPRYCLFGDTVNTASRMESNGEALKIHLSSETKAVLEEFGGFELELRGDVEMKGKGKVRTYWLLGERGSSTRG


Target: T1, human NPRA (hNPRA)
Test: cGMP quantification assay (HTRF) on stable hNPRA-CHO k1 cells (rcs, ics, pcs samples)
Type: cell-based
Conditions: for qualit. activity on hNPRA: BNP engrafted antibody constructs, purified compound samples (pcs), dilution series in quadruplets; for activity on hNPRA cells: purified compound samples
Procedure: All activities shown in Tables 7 and 8 were measured on cells with heterologous over expression of human NPRA (hNPRA) by use of a cGMP quantification assay conducted according to manufacturer's instructions (cisbio; 62GM2PEH). In brief, the assay quantifies cGMP in buffered solution or cell-culture supernatants based on the competition between cGMP produced by the cell as result of the NPRA stimulation through the (natriuretic peptide) sample and d2 labelled cGMP for binding to a Cryptate labelled antibody. Sample cGMP and d2 labeled cGMP compete for binding to a limited number of sites on Cryptate labeled anti-cGMP antibodies, and consequently, HTRF® specific fluorescent signal (i.e. energy transfer) is inversely proportional to the concentration of cGMP in the sample.
Dose-response curve data were analyzed with GraphPad Prism (version 7.00 for Windows, GraphPad Software, La Jolla California USA) and EC50 were fitted according to Y=Bottom+(Top-Bottom)/(1+10∧((Log EC50-X)*HillSlope)) applying constraints for bottom, top and slope (shared value for all data sets of the respective experiment).
The raw compound sample activity on stable hNPRA-CHO k1 cells was first assessed by comparison to the negative control TPP-5657 and to a positive sample, in particular TPP-5661. Controls and res were tested in quadruplets in two concentrations with a relative dilution factor of 5 aiming for a fluorescent signal (s) in the dynamic range of the assay. […] Values listed in Table 7, columns “activity res” and “stdev activity res”, represent the average of the results for the two concentrations and the respective standard deviation. Res signals less than half of the signal of the reference compound TPP-5661 (36%) were assessed as not active (n.a.).
The activity of several raw compound samples on stable hNPRA-CHO k1 cells was reassessed by comparison to reference sample TPP-5661 in 2.5-fold dilution series (8 concentrations) starting with a 5-fold dilution. The “log EC50” fit value as activity measure of the res was set in relation to the corresponding value of the reference res TPP-5661 by calculating the delta “log EC50” _compound −“log EC50” _TPP-5661; resulting values are listed in Table 7, column “rel. activity res”. […] All samples were applied in quadruplets.
The activity of isolated compound samples on stable hNPRA-CHO k1 cells was assessed by EC50 determination and comparison to reference sample TPP-5661. Samples were tested in 2.5-fold dilution series from 80 nM to 0.13 nM. The log EC50 fit value as activity measure of the ics was set in relation to the corresponding value of the reference ics TPP-5661 (−8.8) by calculating the delta log EC50_compound−log EC50_TPP-5661; resulting values are listed in Table 7, column “rel. log EC50 ics”. All samples were applied in quadruplets.
The activity of purified compound samples on stable hNPRA-CHO k1 cells was assessed in multiple experiments by EC50 determination and comparison to reference sample TPP-5661. Samples were tested in dilution series at least in quadruplets. […] The log EC50 fit value as activity measure of the pcs was set in relation to the corresponding value of the reference TPP-5661 in the respective experiment (in average −9.2, standard deviation 0.5) by calculating the delta log EC50_compound−log EC50_TPP-5661.

activity as raw compound sample (res) (stable hNPRA-CHO k1 cells, raw compound samples)	activity on hNPRA cells (stable hNPRA-CHO k1 cells)	Molecule	activity (qualit. activity, excerpt of Table 7) (ANP engrafted antibody constructs, summarized qualitative assessment from average rel. log EC50 vs reference TPP-5661 on hNPRA cells)	activity rcs (raw compound samples (rcs) on stable hNPRA-CHO k1 cells, reference TPP-5661 (#117) gives 36%, n.a. = not active)	qualit. activity (summarized qualitative assessment from average rel. log EC50 (hNPRA-CHO k1 and hNPRA-HEK293 data), n.e = not active, very low expression)	qualit. activity on hNPRA (stable hNPRA-CHO k1 cells)
no activity		TPP-10847: ANP engrafted antibody construct, CDRH2 (antibody, listed as Homo sapiens, NP engrafted HC) heavy: EVQLLESGGGLVQPGGSLRLSCAASGFTFSSYAMSWVRQAPGKGLEWVSAISGTSASLAITGPDGGSGGSLRRSSCFGGRMDRIGAQSGLGCNSFRYGSDRFSGSKSGGSTYYADSVKGRFTISRDNSKNTLYLQMNSLRAEDTAVYYCAKLTGAEYFQHWGQGTLVTVSS[letters of human IgG1 constant region left out] light: QSVLTQPPSVSGAPGQRVTISCTGSSSNIGAGYDVHWYQQLPGTAPKLLIYGNSNRPSGVPDRFSGSKSGTSASLAITGLQAEDEADYYCQSYDSSLSGVVFGGGTKLTVLGQPKAAPSVTLFPPSSEELQANKATLVCLISDFYPGAVTVAWKADSSPVKAGVETTTPSKQSNNKYAASSYLSLTPEQWKSHRSYSCQVTHEGSTVEKTVAPTECS	++ (relative log EC50<0.7 were assessed as very active)	n.a. (Res signals less than half of the signal of the reference compound TPP-5661 (36%) were assessed as not active (n.a.))	++ (relative log EC50<0.7 were assessed as very active)	
	significant activity	TPP-11156: BNP (Hum28aa) engrafted human IgG1 antibody construct, CDRH2 (antibody, listed as Homo sapiens, NP engrafted HC, BNP (Hum28aa) engrafted human IgG1 antibody construct, CDRH2) heavy: EVQLLESGGGLVQPGGSLRLSCAASGFTFSSYAMSWVRQAPGKGLEWVSAISGSVVVTSHQAPGGGSGGMVQGSGCFGRKMDRISSSSGLGCKVLRRGEKKKLKSLAYGSTYYADSVKGRFTISRDNSKNTLYLQMNSLRAEDTAVYYCAKLTGAEYFQHWGQGTLVTVSS[letters of human IgG1 constant region left out] light: QSVLTQPPSVSGAPGQRVTISCTGSSSNIGAGYDVHWYQQLPGTAPKLLIYGNSNRPSGVPDRFSGSKSGTSASLAITGLQAEDEADYYCQSYDSSLSGVVFGGGTKLTVLGQPKAAPSVTLFPPSSEELQANKATLVCLISDFYPGAVTVAWKADSSPVKAGVETTTPSKQSNNKYAASSYLSLTPEQWKSHRSYSCQVTHEGSTVEKTVAPTECS				++ (relative log EC50<0.7 were assessed as very active)
	significant activity	TPP-9902: BNP (Hum28aa) engrafted human IgG1 antibody construct, CDRH3 (antibody, listed as Homo sapiens, NP engrafted HC, BNP (Hum28aa) engrafted human IgG1 antibody construct, CDRH3) heavy: EVQLLESGGGLVQPGGSLRLSCAASGFTFSSYAMSWVRQAPGKGLEWVSAISGSGGSTYYADSVKGRFTISRDNSKNTLYLQMNSLRAEDTAVYYCTSVHQETKKYQSSPDGGSGGMVQGSGCFGRKMDRISSSSGLGCKVLRRGSYSYTYNYEWHVDVWGQGTLVTVSS[letters of human IgG1 constant region left out] light: QSVLTQPPSVSGAPGQRVTISCTGSSSNIGAGYDVHWYQQLPGTAPKLLIYGNSNRPSGVPDRFSGSKSGTSASLAITGLQAEDEADYYCQSYDSSLSGVVFGGGTKLTVLGQPKAAPSVTLFPPSSEELQANKATLVCLISDFYPGAVTVAWKADSSPVKAGVETTTPSKQSNNKYAASSYLSLTPEQWKSHRSYSCQVTHEGSTVEKTVAPTECS				++ (relative log EC50<0.7 were assessed as very active)

From patent US20250236654A1, “C-TYPE NATRIURETIC PEPTIDE ENGRAFTED ANTIBODIES” (Bayer Aktiengesellschaft, priority 2018, published 2025)
